# Assay results reported in PubChem BioAssay AID504832 (National Center for Advancing Translational Sciences (NCATS), 2011).
# The whole screen tested about 310,000 compounds, of which about 18,000 (5.8%) were called active. The inconclusive results got no clear call from the source; some entries with a clear call stand among them for comparison. Calls follow the shape of the dose curve; as a rule, active = well fitted inhibition curve with a large enough effect; inconclusive = small, poorly fitted or top-dose-only effect, or another doubt; inactive = no such curve, though single readings can be large or run the other way. Potencies of inconclusive entries are left out as doubtful fits.
# Experiment: Primary qHTS for delayed death inhibitors of the malarial parasite plastid, 48 hour incubation
# Settings: P. falciparum luciferase growth in erythrocytes; series mostly up to 28.7 µM; activity change, negative = inhibition: at the top concentration
# Summary of the method: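 Read-out is firefly luciferase luminescence from an integrated reporter in P. falciparum, so falling signal marks reduced parasite growth. Infected erythrocytes were at 2% hematocrit and 0.1% parasitemia (final) in Albumax-supplemented RPMI 1640.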
# % is scaled to controls: 0 for no effect and ±100 for the full control effect; potency is read from the fitted curve at half-maximal effect; tags tell the direction and shape of the fitted curve.
Compound,Potency,"activity change, negative = inhibition"
COC(=O)C(=C/C(C)=C/c1cccs1)C(=O)OC,"inconclusive [inhibitor, single point]",
CC12C(=O)N(CCC(=O)O)C(=O)C1C1C=CC2C1 (stereo not drawn),,inactive: 4.54%
Cc1cccc(Cc2nnc(CCC(=O)N(CC3CC3)CC3CCCO3)o2)c1 (stereo not drawn),,inactive: -15.9%
CCCCCn1c(SCc2cccc(C)c2)nc2c1c(=O)[nH]c(=O)n2C,"inconclusive [inhibitor, partial curve]",
CCOC(=O)N1CCN(C(=O)CS(=O)(=O)c2cn(Cc3ccc(Cl)cc3)c3ccccc23)CC1,"inconclusive [inhibitor, partial curve, poor fit]",
CC(C)CCN1C(=O)c2ccc(C(=O)NCc3ccccn3)cc2C1=O,,inactive: 22.6%
CCN(CC)c1ccc(/C=N/NC(=S)NCc2ccccc2)cc1,active: 13.1 µM,
O=C(NC1CCCCC1)C(c1ccccc1)N(Cc1cccnc1)C(=O)c1csnn1 (stereo not drawn),"inconclusive [inhibitor, partial curve, poor fit]",
O=C1CCC(C(=O)N2CCCCCC2)CN1CCc1ccc(Cl)cc1 (stereo not drawn),,inactive: 7.93%
CCC(=O)C(C#N)(c1ccc(OC)c(OC)c1)C(C)C (stereo not drawn),,inactive: 22.4%
NC(=O)c1nsc(C(=O)N(CC(=O)NC2CCCCC2)c2cccc(F)c2)c1N,"inconclusive [inhibitor, partial curve, poor fit]",
COc1ccc(NC(=O)CN(C)C(=O)c2cccc(S(=O)(=O)Nc3ccc(OC)cc3)c2)cc1,"inconclusive [inhibitor, single point]",
CCOc1ccccc1NC(=O)C1CCCN(S(=O)(=O)c2c(C)[nH]c(=O)[nH]c2=O)C1 (stereo not drawn),"inconclusive [inhibitor, partial curve, poor fit]",
COc1ccc(OC)c(N(C)S(=O)(=O)c2cc3c(cc2C)NC(=O)CO3)c1,"inconclusive [inhibitor, single point]",
O=c1cc(COn2nnc3ccc(C(F)(F)F)cc32)nc2sccn12,"inconclusive [inhibitor, single point]",
O=C(NCc1ccc(F)cc1)c1cccc2c1C(=O)c1ccc(N3CCOCC3)cc1S2(=O)=O,"inconclusive [inhibitor, single point]",
COc1ccc(/C=N/n2c(N)nc(-c3ccccc3)c2-c2ccccc2)cc1,"inconclusive [inhibitor, single point]",
CCCCn1c(N)c(N(CC(C)C)C(=O)c2ccc(Cl)c(S(=O)(=O)N3CCCC3)c2)c(=O)[nH]c1=O,"inconclusive [inhibitor, partial curve, poor fit]",
CCCCC(CC)CNC(=O)/C=C/c1ccc(F)cc1 (stereo not drawn),"inconclusive [inhibitor, single point]",
Oc1ccc(/C=N/NC(=S)Nc2cccnc2)c(O)c1,active: 6.57 µM,
Cc1ccccc1CNC(=O)C(=O)Nc1nccs1,,inactive: 12.1%
Cc1ccc(C)n1Cc1ccc(C(=O)O)cc1,,inactive: -12%
CCCN(CCC)CCN1C(=O)C2C(C(=O)Nc3ccc(C)cc3)C3C=CC2(O3)C1C(=O)NC1CCCCC1 (stereo not drawn),"inconclusive [inhibitor, single point]",

Compound,Potency,"activity change, negative = inhibition"
CCn1c(SCC(=O)Nc2ccc(Cl)cc2)nc2nc3c(cc2c1=O)CCCC3,"inconclusive [inhibitor, partial curve]",
Cn1c(=O)c2c(nc(N3CCCCCC3)n2CC(O)COc2ccccc2)n(C)c1=O (stereo not drawn),"inconclusive [inhibitor, partial curve, poor fit]",
COc1ccc(CCNC(=O)Nc2ccc([N+](=O)[O-])cc2)cc1OC,,inactive: 5.04% [at 5.75 µM]
CCCCOc1ccccc1C1C(C(=O)OC)=CN(CC)C=C1C(=O)OC,"inconclusive [inhibitor, partial curve]",
Cc1cc(Br)ccc1N=C1C(=O)Nc2ccccc21,"inconclusive [inhibitor, partial curve, poor fit]",
O=C(/C=C/c1ccco1)NCC1(c2ccccc2)CCCC1,"inconclusive [inhibitor, single point]",
O=C(O)c1cn(-c2ccc(F)cc2)c2cc(N3CCNCC3)c(F)cc2c1=O,"inconclusive [inhibitor, partial curve]",
Cc1c(OC(C)C(=O)NCCCN2CCOCC2)ccc2c1oc(=O)c1ccccc12 (stereo not drawn),"inconclusive [inhibitor, partial curve]",
CCOc1ccc2[nH]c3c(c2c1)CNCC3,"inconclusive [inhibitor, partial curve, poor fit]",
CCCCOC(=O)Nc1ccc(OC)cc1S(=O)(=O)N1CCOCC1,,inactive: -0.189%
CC(C)(C)C1=C(C#N)C(c2ccc3c(c2)OCO3)C(C#N)=C(N)O1 (stereo not drawn),"inconclusive [inhibitor, single point]",
Cc1ccc(Nc2cc(C)nc3nnnn23)cc1,"inconclusive [inhibitor, single point]",
Cc1nnc(SCc2nnc(-c3cccs3)o2)n1C,,inactive: 28.4%
Cc1cc(C)c(C#N)c(N2CCN(Cc3ccccc3)CC2)n1,,inactive: 0.0542%
Cc1ccc(C)c(-n2c(SCC(N)=O)nnc2-c2ccccn2)c1,,inactive: -16.2%
CCNc1c(NC(=O)C2CCC(C)CC2)c(=O)oc2ccccc12 (stereo not drawn),"inconclusive [inhibitor, single point]",
CCCCCOc1ccc(NC2=CC(=O)CCC2)cc1,active: 13.1 µM,
CCN(CC(=O)Nc1c(F)cccc1F)C(=O)C1=COCCO1,,inactive: -8.23%
CCOC(=O)N1CCC(n2c(SCC(=O)N3CCC(C)CC3)nc3ccccc3c2=O)CC1,active: 10.4 µM,
CC(=O)Nc1ccc(NC(=O)C(=O)NCC(c2ccco2)N2CCc3ccccc32)cc1 (stereo not drawn),active: 13.1 µM,
CCCCc1cc(=O)oc2cc(O)ccc12,"inconclusive [inhibitor, partial curve, poor fit]",
CC(C)(C)N1C(=O)c2ccc(C(=O)Nc3ccc(-c4nc5ccccc5[nH]4)cc3)cc2C1=O,active: 0.522 µM,
Cc1coc2cc3oc(=O)c(CCC(=O)NC4CC4)c(C)c3cc12,"inconclusive [inhibitor, single point]",

Compound,Potency,"activity change, negative = inhibition"
CN1CCN(NC(=O)c2cn(-c3ccccc3)nc2-c2cccc(Br)c2)CC1,"inconclusive [inhibitor, single point]",
CC1=CCC2C(=O)N(c3ccc(S(N)(=O)=O)cc3)C(=O)C2C1 (stereo not drawn),"inconclusive [inhibitor, single point]",
O=C(O)c1cccc(N2C(=O)CCC2=O)c1,,inactive: 24.7%
CN(c1ccc(C(=O)NCCSCc2ccc(Cl)cc2)cc1)S(=O)(=O)c1ccccc1,,inactive: 4.17%
c1ccc(CSc2nnc(-c3cccs3)n2Cc2ccco2)cc1,"inconclusive [inhibitor, single point]",
CCOC(=O)c1cnc(Nc2nc3ccccc3o2)nc1CSC(=S)N(CC)CC,"inconclusive [inhibitor, full curve]",
CCn1cc(C(=O)NCCCN(C)C)c(=O)c2cc(F)c(N3CCN(C)CC3)cc21,"inconclusive [inhibitor, single point]",
CCc1ccc(N(C2C=CS(=O)(=O)C2)S(=O)(=O)c2ccccc2)cc1 (stereo not drawn),"inconclusive [inhibitor, single point]",
CSc1ncccc1C(=O)N1CCCC(C(=O)c2cc(F)ccc2F)C1 (stereo not drawn),,inactive: -11%
COc1ccc(NC(=O)C2CC(=O)N(CCc3ccc(Cl)cc3)C2)cc1 (stereo not drawn),"inconclusive [inhibitor, full curve, poor fit]",
O=C/C(=C\Nc1ccccn1)c1nc2cc(Cl)ccc2o1,"inconclusive [inhibitor, single point]",
COc1ccc(NC(=O)c2nc[nH]c2C(=O)N[C@@H](C)c2ccccc2)cc1,"inconclusive [inhibitor, single point]",
COc1ccc(C)cc1NC(=O)C(OC(=O)c1ccc(Cl)c(S(=O)(=O)N(C)c2ccccc2)c1)c1ccccc1 (stereo not drawn),"inconclusive [inhibitor, single point]",
CCN(CC(=O)Nc1sc2c(c1C#N)CCC(C)C2)Cc1nc2ccccc2c(=O)[nH]1 (stereo not drawn),"inconclusive [inhibitor, single point]",
CCOC(=O)N1CCN(S(=O)(=O)c2cc(Cl)c(OC)cc2Cl)CC1,"inconclusive [inhibitor, partial curve, poor fit]",
O=C(c1sc2ccccc2c1Cl)N(Cc1ccccc1Cl)C1CCS(=O)(=O)C1 (stereo not drawn),"inconclusive [inhibitor, single point]",
CS(=O)(=O)c1ncc(Cl)c(C(=O)Nc2ccc(N3CCOCC3)cc2)n1,,inactive: 96.9%
CCC1=Nc2cc(C(=O)NCCN3CCCC3)ccc2Sc2ccccc21,"inconclusive [inhibitor, single point]",
CCCS(=O)(=O)c1nc(S(=O)(=O)c2ccc(C)cc2)c(N2CCCC2)s1,active: 11.7 µM,
CCCCn1c(=O)[nH]c(=O)c2c1nc(-c1ccsc1)n2Cc1ccccc1,"inconclusive [inhibitor, single point]",
C=CCn1c(C)nnc1SCC(=O)N1CCN(S(=O)(=O)c2ccccc2)CC1,"inconclusive [inhibitor, partial curve]",
CC1CCCCC1NC(=O)c1ccco1 (stereo not drawn),"inconclusive [inhibitor, single point]",
